# This is one part of the list. At the low end of the ranking, values are background and their order means little.
# Target: T1, GST-Rok (full length) (UniProt O34857)
# T1 sequence: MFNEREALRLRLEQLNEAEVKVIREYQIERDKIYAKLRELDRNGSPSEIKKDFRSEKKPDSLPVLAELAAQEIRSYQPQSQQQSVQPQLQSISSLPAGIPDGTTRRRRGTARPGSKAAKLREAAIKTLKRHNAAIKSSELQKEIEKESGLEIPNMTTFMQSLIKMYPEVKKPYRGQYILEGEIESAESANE
# Experiment: protein binding microarray;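 note: rank score from −0.5 (least bound) to 0.5 (best bound)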
# Settings: Rok is a gene silencer of Bacillus subtilis; high values mean tight binding; most listed sequences are background and not binding sites; double strand, one strand shown
row,Sequence,binding signal [E-score]
1,GCGACTCA,-0.167
2,CCACAAGC,-0.0749
3,GACGCGGA,-0.213
4,GTACCAAA,0.104
5,AGCGGCCG,-0.154
6,CGATATCA,0.134
7,GCGTCCGA,-0.16
8,AATTGGCA,-0.0881
9,GACGTCCA,-0.114
10,GATGATGA,0.0824
11,TAAATTCA,0.217
12,GCGTCTTA,-0.0703
13,GAAAGCAA,0.0112
14,CTTCTCAA,-0.0416
15,AGGTCGTC,-0.208
16,AAGTCTGG,-0.0136
17,CCTTTTAA,-0.0612
18,AGACGCAA,-0.089
19,CATGCAAG,-0.088
20,CCATCCCG,-0.179
21,CATGCATA,0.215
22,GCGCTCTA,0.0397

row,Sequence,binding signal [E-score]
1,ATGCGGGC,-0.169
2,GTAATTAC,0.421
3,ATCTAGGC,0.0415
4,GATACCCC,-0.235
5,ATTGCAGA,-0.0117
6,GCGCCACC,-0.329
7,AAGAGTAG,0.183
8,ACTCGCTA,-0.0121
9,AAGTCGGA,-0.198
10,CTTCATCA,-0.0921
11,CTCGCGAG,-0.0252
12,GAATGAGC,-0.114
13,ACTATCCT,0.0634
14,AATCAGCT,-0.0409
15,CCCCGCGG,-0.348
16,ACAGTCAT,0.00499
17,CTCGTTGC,-0.215
18,AGAAGTGG,0.131
19,ATCCTTCA,-0.0679
20,GGATAACC,-0.14
21,ATCCGGAG,-0.135
22,ACCTTAGG,-0.124

row,Sequence,binding signal [E-score]
1,AAGACAAC,-0.1
2,CATACGTC,0.119
3,TAGAGTGA,-0.102
4,CAGAGTCC,-0.297
5,ACCGGATA,0.0515
6,AAGCACAT,0.0584
7,TGTACTAA,0.0689
8,CCTGCTGC,-0.321
9,ATTCAGTG,0.0704
10,CGGTCAAG,-0.264
11,CCCCATTC,-0.327
12,CGCGAAAC,-0.0106
13,AAACCGGA,0.0308
14,AAATAGAG,0.0358
15,ATGTCTTG,-0.0447
16,ACTGACTC,-0.022
17,ATCATAAG,0.0119
18,CGCTACTC,-0.0293
19,CCTATCAG,0.0668
20,CAGATCCA,-0.0843
21,GAGATGCA,-0.163
22,TAGCGCAA,0.203

row,Sequence,binding signal [E-score]
1,CATGGGAC,-0.214
2,AACAATTC,0.273
3,ACATCGGG,-0.192
4,ATACGTCC,0.0529
5,AAGTCGCC,-0.0852
6,AAGTTGTG,0.0359
7,CTAACGAG,0.0146
8,ATTACAGA,0.291
9,CCCTCGCA,-0.191
10,GCCGCCGA,-0.206
11,TCTAAGCA,0.0166
12,CCTATATA,0.123
13,CATGTAAA,0.233
14,ATCAGTAA,0.231
15,AAGCTCGA,-0.0986
16,ACTAGCCT,0.0387
17,ATGCAGTC,-0.0871
18,GGGGTCTA,-0.358
19,AGGGGTCC,-0.388
20,AAACGTCA,0.0127

# From paper PMC6212790
